Reference: the supplement of paper PMC7125110
± gives the standard error. Variants at the floor of the assay are shown more often than the library holds them.

B1: glmS ribozyme (parent)
chain: AUAAAAGCGCCAGAACUACAGAAAUGUAGUUGACGAGGAGGAGGUUUAUCGAAUUUUCGGCGGAUGCCUCCAAA

Assays:
Details in all cases: with glucosamine-6-phosphate
glucosamine-6-phosphate [1] = variants of: B1; assay: self-cleavage kobs at 640 uM GlcN6P; higher = faster cleavage; RNA array
Summary of the method: (§1)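 Sequenced MiSeq chips were the platform: E. coli RNA polymerase transcribed barcoded ribozyme variants on them in situ, and a hybridised Cy3 probe tracked these at 37 °C. After glucosamine-6-phosphate (40 μM to 10 mM) in HEPES/KCl/Mg(OAc)2 buffer was flowed in, tiles were imaged over ~14 h. Signals normalised to baseline and to non-cleaving reference variants were reduced to per-tile medians and fit to one- or two-exponential decays to obtain kobs. kcat and KM were derived through weighted Michaelis–Menten fits across concentrations.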

glucosamine-6-phosphate [2] = variants of: B1; assay: self-cleavage kobs at 160 uM GlcN6P; higher = faster cleavage; RNA array
Summary of the method: as §1

glucosamine-6-phosphate [3] = variants of: B1; assay: self-cleavage kobs at 2500 uM GlcN6P; higher = faster cleavage; RNA array
Summary of the method: as §1

glucosamine-6-phosphate [4] = variants of: B1; assay: self-cleavage kobs at 10000 uM GlcN6P; higher = faster cleavage; RNA array
Summary of the method: as §1

| Variant | self-cleavage kobs at 640 uM GlcN6P (glucosamine-6-phosphate [1]) | self-cleavage kobs at 160 uM GlcN6P (glucosamine-6-phosphate [2]) | self-cleavage kobs at 2500 uM GlcN6P (glucosamine-6-phosphate [3]) | self-cleavage kobs at 10000 uM GlcN6P (glucosamine-6-phosphate [4]) |
| --- | --- | --- | --- | --- |
| C34A U46C | < 1e-05 s⁻¹ | < 1e-05 s⁻¹ | < 1e-05 s⁻¹ |  |
| A33U C50U G59A | < 1e-05 s⁻¹ |  | < 1e-05 s⁻¹ |  |
| U30G C68G C70G | < 1e-05 s⁻¹ |  | < 1e-05 s⁻¹ |  |
| U30G U46C U47G | 8.33e-05 ± 2.2e-05 s⁻¹ |  |  |  |
| C34A G44C | < 1e-05 s⁻¹ | < 1e-05 s⁻¹ | < 1e-05 s⁻¹ |  |
| C34U A36C A42U | < 1e-05 s⁻¹ | < 1e-05 s⁻¹ | < 1e-05 s⁻¹ |  |
| U31A U57A | 4.97e-05 ± 2.1e-05 s⁻¹ | < 1e-05 s⁻¹ | 0.000125 ± 2.8e-05 s⁻¹ | 0.000194 ± 2.7e-05 s⁻¹ |
| A33U A48C C68U | < 1e-05 s⁻¹ |  | < 1e-05 s⁻¹ |  |
| G32C G43C | < 1e-05 s⁻¹ | < 1e-05 s⁻¹ |  |  |
| C34G G63U | < 1e-05 s⁻¹ | < 1e-05 s⁻¹ | < 1e-05 s⁻¹ | < 1e-05 s⁻¹ |
| C34G G63A | < 1e-05 s⁻¹ | < 1e-05 s⁻¹ | < 1e-05 s⁻¹ | < 1e-05 s⁻¹ |
| C34G G60A | < 1e-05 s⁻¹ | < 1e-05 s⁻¹ | < 1e-05 s⁻¹ |  |
| G32A A36U | < 1e-05 s⁻¹ | < 1e-05 s⁻¹ |  |  |
| A33U A52C U54C | < 1e-05 s⁻¹ |  |  |  |
| C34A G40C C61U | < 1e-05 s⁻¹ |  |  |  |
| C34U A64U G66C | < 1e-05 s⁻¹ |  |  |  |
| U31A G41U C61U U69G | < 1e-05 s⁻¹ |  | < 1e-05 s⁻¹ |  |
| C34G A36U A42C | < 1e-05 s⁻¹ |  | < 1e-05 s⁻¹ |  |
| A33G G40A C67A | < 1e-05 s⁻¹ |  | < 1e-05 s⁻¹ |  |
| A33C A48U U49C U55A | < 1e-05 s⁻¹ | < 1e-05 s⁻¹ | < 1e-05 s⁻¹ | < 1e-05 s⁻¹ |
| U31C G43A C70U | < 1e-05 s⁻¹ |  |  |  |
| C34U A53C U56A U69C | < 1e-05 s⁻¹ |  |  |  |
| G32C C34A G37U U55C | < 1e-05 s⁻¹ |  | < 1e-05 s⁻¹ |  |
| A33C G44A C50A C67U | < 1e-05 s⁻¹ |  |  |  |
| U31G G37C G38C | < 1e-05 s⁻¹ |  | < 1e-05 s⁻¹ |  |
| G32U C34U C68U | < 1e-05 s⁻¹ |  |  | < 1e-05 s⁻¹ |
| G32C G44U U56C U65C | < 1e-05 s⁻¹ |  | < 1e-05 s⁻¹ | < 1e-05 s⁻¹ |

| Variant | self-cleavage kobs at 640 uM GlcN6P (glucosamine-6-phosphate [1]) | self-cleavage kobs at 160 uM GlcN6P (glucosamine-6-phosphate [2]) | self-cleavage kobs at 2500 uM GlcN6P (glucosamine-6-phosphate [3]) | self-cleavage kobs at 10000 uM GlcN6P (glucosamine-6-phosphate [4]) |
| --- | --- | --- | --- | --- |
| U31A G51A | < 1e-05 s⁻¹ | < 1e-05 s⁻¹ | < 1e-05 s⁻¹ | < 1e-05 s⁻¹ |
| A33G U54G C67U | < 1e-05 s⁻¹ |  |  |  |
| A33G G38C A42C A52U C70G | < 1e-05 s⁻¹ |  |  |  |
| G32U G37U G59U | < 1e-05 s⁻¹ |  |  |  |
| C34A U49G C67U | < 1e-05 s⁻¹ | < 1e-05 s⁻¹ |  |  |
| U31G G35C G51U | < 1e-05 s⁻¹ |  |  |  |
| G32U A33G | < 1e-05 s⁻¹ |  |  |  |
| U30C G43U U46A U55G G60A | < 1e-05 s⁻¹ |  | < 1e-05 s⁻¹ | < 1e-05 s⁻¹ |
| G32U G43U G60C | < 1e-05 s⁻¹ |  |  |  |
| G32U A36G U56C | < 1e-05 s⁻¹ |  |  |  |
| U31A A42U G63U | < 1e-05 s⁻¹ |  | < 1e-05 s⁻¹ | < 1e-05 s⁻¹ |
| G32A G51U A52U G60C G62C | < 1e-05 s⁻¹ |  |  |  |
| A33C A39G G40U U46C C50U | < 1e-05 s⁻¹ |  |  |  |
| A33C G35A G51C | < 1e-05 s⁻¹ | < 1e-05 s⁻¹ | < 1e-05 s⁻¹ |  |
| G32A G38C A52U U56A C70G | < 1e-05 s⁻¹ |  |  |  |
| C34G G51C A52U C61U | < 1e-05 s⁻¹ |  | < 1e-05 s⁻¹ |  |
| G32U G38C C68U | < 1e-05 s⁻¹ |  |  |  |
| C34A C68A | < 1e-05 s⁻¹ | < 1e-05 s⁻¹ | < 1e-05 s⁻¹ |  |
| A33U G38U A48G | < 1e-05 s⁻¹ |  | < 1e-05 s⁻¹ |  |
| A33G A48G G60U | < 1e-05 s⁻¹ |  | < 1e-05 s⁻¹ | < 1e-05 s⁻¹ |
| U30C U31G C50G C70G | 0.000289 ± 0.0001 s⁻¹ | 0.000158 ± 4.4e-05 s⁻¹ | 0.00026 ± 5.8e-05 s⁻¹ |  |
| G32C G40U G59C | < 1e-05 s⁻¹ |  | < 1e-05 s⁻¹ |  |
| U31C U49G | 2.25e-05 ± 9.3e-06 s⁻¹ |  | 4.27e-05 ± 7.7e-06 s⁻¹ | 6.33e-05 ± 9.1e-06 s⁻¹ |
| C34A A39U | < 1e-05 s⁻¹ |  |  |  |
| A33C A48C U54G C61U G63C | < 1e-05 s⁻¹ |  |  |  |
| C34A G44U U65G | < 1e-05 s⁻¹ | < 1e-05 s⁻¹ | < 1e-05 s⁻¹ |  |
| U31A U49G C50A U55G U56A | < 1e-05 s⁻¹ | < 1e-05 s⁻¹ | < 1e-05 s⁻¹ | < 1e-05 s⁻¹ |
